Here are results for 22 molecules from PMC12136788.

Some of the results follow.

To fix the notation:
T1: UNK ZnF1-6 (called full-length) (human, UniProt Q9C0B0 30-357)
T1 sequence: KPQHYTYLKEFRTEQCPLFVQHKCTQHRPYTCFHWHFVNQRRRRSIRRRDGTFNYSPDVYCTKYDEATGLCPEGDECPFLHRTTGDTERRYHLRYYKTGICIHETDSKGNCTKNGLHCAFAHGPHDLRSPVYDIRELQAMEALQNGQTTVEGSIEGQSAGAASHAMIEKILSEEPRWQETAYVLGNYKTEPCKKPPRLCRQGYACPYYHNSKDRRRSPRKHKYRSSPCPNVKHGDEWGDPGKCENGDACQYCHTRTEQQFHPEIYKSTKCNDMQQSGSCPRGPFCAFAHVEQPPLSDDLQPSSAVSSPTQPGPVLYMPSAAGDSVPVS

B1: ENSG00000198589:be:win_5751|CDS|ENSG00000198589|bound_else_gene|NA|bound_elsewhere_windowed (ssRNA)
RNA: GGGAGUUCUACAGUCCGACGAUCUGAGUCACUGUGUGCCCAGUAUUCUGCAGACAAACGAGAAGAUGAGAAGAUGUGUGAUCAUUUGAUAAGAGCAGCAAAAUAUCGUGACCACGUGACAGCAACUCAACUAAUCCAGAAAAUCAACAGAGGAUUGAGCAUCA
B2: ENSG00000149428:stop:overlap|stop_codon|ENSG00000149428|stop_codon|NA|stop_codon (ssRNA)
RNA: GGGAGUUCUACAGUCCGACGAUCGCUCCUGCAGUUCUCACCUGAGGAAGUGUUGGGCAUGGUUCUCAAUUAUUCUCGUUCUCUAGCUGAAGAUUUUGCAGAGCAGCCCAUCAAGGAUGCAGUGAUCACCGUGCCAGUCUUCUUCAACAGAGGAUUGAGCAUCA
B3: chr13:30205178:30205279:-|3pUTR|ENSG00000102781|msi1|FALSE|bound_elsewhere (ssRNA)
RNA: GGGAGUUCUACAGUCCGACGAUCUUGGCAGUUUCUCUAACGACUCUGUAUAGCUUCUGGCUUCUACUACUGAAACAAGAGUUUAGAUCACUGAUGGAGAGGCAUAGUAAUCUGUUUGUGCUUUGGAAAAAUAUAUAAAAGUUUCAACAGAGGAUUGAGCAUCA
B4: ENSG00000011677:stop:overlap|stop_codon|ENSG00000011677|stop_codon|NA|stop_codon (ssRNA)
RNA: GGGAGUUCUACAGUCCGACGAUCUCUAUUGGGCCACAUAUGUCAACCGGGAGUCAGCUAUCAAGGGCAUGAUCCGCAAACAGUAGAUAGUGGUGGCAGUGCAGCAACCAGAGCACUGUAUACCCCGUGAAGCAUCCAGGCACCCAACAGAGGAUUGAGCAUCA
B5: chr10:113908677:113908778:+|3pUTR|ENSG00000196865|unk|FALSE|bound_elsewhere (ssRNA)
RNA: GGGAGUUCUACAGUCCGACGAUCAGCUAUGCUCCUUACUUACUUCUUUUAUUAUAAACAAAUUCCUUUGCUUUGGCUGAUACUAGCUGAGUCAUUGAUCAUCAUUGGUACCAUGAUAUUGUAAUCUAUGCUGCUAUUUGGCACCAACAGAGGAUUGAGCAUCA
B6: chr12:57626096:57626197:-|3pUTR|ENSG00000135454|msi1|total|mutant (ssRNA)
RNA: GGGAGUUCUACAGUCCGACGAUCGUGUCUCUGCAAUGCUGUGGGCACAAAAGAAGGGGCACCAGAGUCCCUGUGCAAACACCCCGACUCACUUCAUGGAUUCCAAAGCUCUCAGCUUCAUUUUAUCCGUUACGUCCGGUAAGGCAACAGAGGAUUGAGCAUCA
B7: chr4:55870735:55870847:+|CDS|ENSG00000090989|unk|FALSE|bound_elsewhere (ssRNA)
RNA: GGGAGUUCUACAGUCCGACGAUCGGCAUCUGAAAAACAAGUCAACAUCCUGAUGAAAUUGCUAGAUGAGGCUCUAAAGGAGGUAGAUCAGAUUGAAUUGAAACUGAGCAGUUAUGAGGAAAUGCUCCAAAGUGUAAAAGAACACAACAGAGGAUUGAGCAUCA
B8: chr17:35273046:35273147:+|3pUTR|ENSG00000166750|unk|FALSE|unique (ssRNA)
RNA: GGGAGUUCUACAGUCCGACGAUCAUUCCUAAGAGCAGAAGACUGCAAAAUAGUAAAUAUAUACCCAAAAGGGUCUAAUGGAUUAGUUUUUGGCAUAUCAGCACAUGAUAAUACUAUGAAGCCAUAAAAAAGAGAGAUCUCUAUCAACAGAGGAUUGAGCAUCA
B9: chr13:52036708:52036809:-|3pUTR|ENSG00000197168|unk|total|mutant (ssRNA)
RNA: GGGAGUUCUACAGUCCGACGAUCGCCGAACUUUUGAAUACCGCCAUUAAUAUUUUUACUUUAAAGUUUCUAUUAAGAAAUCUCCGGCCGGGCAGUCUCAUCACUUUGGGAGGCCAAGGCAGGCAGAUCAUGAGGUCAGGAGUUCAACAGAGGAUUGAGCAUCA
B10: chr13:37103258:37104242:-|three_prime_utr|ENSG00000180138|control|control|control (ssRNA)
RNA: GGGAGUUCUACAGUCCGACGAUCAAUGAGGAACAGAAGAAGCAGAGCAGAUGAUUCGAGCAGCAUUUGUUUCUCCCCACAUCUAGAAAUUGUAGUUCAUAUGUACACCAGCUAGUGGCUGUGAACAACCAUUUAGUUGGUGUACAACAGAGGAUUGAGCAUCA
B11: chr18:58535911:58536012:-|CDS|ENSG00000198796|msi1|FALSE|unique (ssRNA)
RNA: GGGAGUUCUACAGUCCGACGAUCUCUGACCUGCCCUAAAAUCCUAGAGUCCUCUGUAGAUCCCAUUGAUGAGAUAAGUGUGAUAGAGUACACCAGGGCUGGAAAACCAGAGCCCUCUGAAACCACACCACAGGGCGCCAGAGACAACAGAGGAUUGAGCAUCA
B12: chr15:31475397:31483293:-|three_prime_utr|ENSG00000169918|control|control|control (ssRNA)
RNA: GGGAGUUCUACAGUCCGACGAUCUGUACGUGUUUGGUCAAACGUUCCUAAUGGUGCCUGAACCUACACUGACGCCACUCAGGUAGUAGACGGAUAGGAAACAAGUCAUACUGUUGGAAGUGGGUGUGCUAGCCUAGCAUCUGCCAACAGAGGAUUGAGCAUCA
B13: chr3:142163631:142163732:-|3pUTR|ENSG00000175066|unk|FALSE|unique (ssRNA)
RNA: GGGAGUUCUACAGUCCGACGAUCCCCAAAGUGCUGGGAUUGCAGCCGUGAACCACUGCACCCAGCCAAUGGGUGUAAUUUCAUAGGAAAUAAUUCUUUUUGUCAGAAUGUACUGAAUUGUAAUAUUAAUACCUGAAAAUUUGUCAACAGAGGAUUGAGCAUCA
B14: chr5:40945159:40945374:+|CDS|ENSG00000112936|unk|FALSE|unique (ssRNA)
RNA: GGGAGUUCUACAGUCCGACGAUCGAAUUUUACAAUAGUACUUGGUCUUAUGUAAAACAUACGUCGACAGAACACACAUCAUCUAGUCGGAAGCGCUCCUUUUUUAGAUCUUCAUCAUCUUCUUCACGCAGUUAUACUUCACAUCAACAGAGGAUUGAGCAUCA
B15: chr7:56063203:56063317:+|3pUTR|ENSG00000146731|unk|total|mutant (ssRNA)
RNA: GGGAGUUCUACAGUCCGACGAUCCCCAUAUGAAAAAAGGAGAGAACACUGGCAUCUGUUGAAAUUUGGAAGUUCUGAAAUUACCGUAUUUUUAAAAAUUGCACUGAAGUGUAUACACAUAAAGCAGGUCUUUUAUCCAGUGAACAACAGAGGAUUGAGCAUCA
B16: chr8:41543231:41543332:+|3pUTR|ENSG00000147536|msi1|FALSE|unique (ssRNA)
RNA: GGGAGUUCUACAGUCCGACGAUCAAACCAUUAUUAAAUUUCCAUUCUGCAGCAGAAGGCACCUCUGGACGGCUCCCGGCUUGUAGUUUAAUGAAGUAUGUGCUCCCUGCUGUUAACCCGCAGCCCUCCCCAACUCUCCAGCAGCAACAGAGGAUUGAGCAUCA
B17: chr4:173322470:173322571:+|3pUTR|ENSG00000109586|msi1|FALSE|bound_elsewhere (ssRNA)
RNA: GGGAGUUCUACAGUCCGACGAUCUGUAGCAUUCACUCCCUUACCUACUGGCAUUCCCAGUGCCCUCUGUCCAUACCUACUUCUAGGAUUGCAAAGGAGUCUUCCAACUAGAGAAAAAUUGUCCACUGACAUUUGGGAUUUACUCAACAGAGGAUUGAGCAUCA
B18: chr16:30351896:30351997:-|3pUTR|ENSG00000169217|unk|FALSE|unique (ssRNA)
RNA: GGGAGUUCUACAGUCCGACGAUCCUGGCACCCUCCACCUCCACGCCCCACCAGCAUUGCCUUACGCCUCCCUUGCCCCACGUUAGAUGGUUUCUUCCGGUUUUGCACUCUGGCUGCCCCUUGGAGUCUCCUGGGGAGCUGUAACAACAGAGGAUUGAGCAUCA
B19: chr12:293013:293114:-|CDS|ENSG00000073614|unk|FALSE|bound_elsewhere (ssRNA)
RNA: GGGAGUUCUACAGUCCGACGAUCACUAAAAGUGAAAGGAAAGGACUCUUCAGAGAAGAAACGGAAACGGAAGCUAGAAAAGGUAGAGCAACUUUUUGGAGAAGGAAAACAGAAGUCCAAGGAGUUAAAGAAAAUGGACAAACCCAACAGAGGAUUGAGCAUCA
B20: chr10:87753454:87753555:-|3pUTR|ENSG00000138138|msi1|FALSE|bound_elsewhere (ssRNA)
RNA: GGGAGUUCUACAGUCCGACGAUCCGUUUAAUGUGAAUUAUAUGUGAAUUUUUUUCAAAAUUUUACUAACCAGAAUUCUGUUAUAGGCACCUAACCACGCAGCAUGAGGAAAACGGCACAACACAAUCUUGAGGUGCCUUCUGACAACAGAGGAUUGAGCAUCA
B21: chr3:100713726:100713879:+|CDS|ENSG00000114354|unk|FALSE|unique (ssRNA)
RNA: GGGAGUUCUACAGUCCGACGAUCACUUGGGGAGGAUAUUCGGCGAAUUCCUAUUCAUAAUGAAGAUAUUACUUAUGAUGAAUUAGUGCUAAUGAUGCAACGAGUUUUCAGAGGAAAACUUCUGAGUAAUGAUGAAGUAACAAUCAACAGAGGAUUGAGCAUCA
B22: chr2:206311781:206311882:+|3pUTR|ENSG00000204186|unk|total|mutant (ssRNA)
RNA: GGGAGUUCUACAGUCCGACGAUCCCGUGUUCCGAGUCCUUUCAUUUUAAGAUUCAGAAACAGCCUUUGUCCAACAUUUUCUGCCGAAGAACUUCAUCUUAAUUUAUGUCACAAAAUAAUUCCGCACCGUAUACCGAAUUUUGUCAACAGAGGAUUGAGCAUCA

The assay deals with T1, UNK ZnF1-6 (called full-length). The assay is described as follows: nsRBNS (natural sequence RNA bind-n-seq); RBNS binding buffer (assumed for nsRBNS): 25 mM Tris pH 7.5, 150 mM KCl, 3 mM MgCl2, 0.01% Triton X-100, 500 ug/ml BSA, 20 U/ml SUPERase-In, 4 C; UNK is unkempt and MSI1 is Musashi-1; names of the RNAs are library labels; protein concentration not given here; high values mean tight binding.
In turn, B1 showed a binding signal of 0.384 enrichment R.

Regarding B2, the binding signal stood at 1.02 enrichment R.

B3 came in with a binding signal of 1.89 enrichment R.

In turn, B4 returned a binding signal of 0.896 enrichment R. B5 returned a binding signal of 3.85 enrichment R.

B6 showed a binding signal of 0.682 enrichment R. In turn, B7 returned a binding signal of 0.478 enrichment R. The molecule B8 showed a binding signal of 2.71 enrichment R. The molecule B9 had a binding signal of 2.85 enrichment R. The value for B10 was 1.16 enrichment R; that for B11 was 0.631 enrichment R; that for B12 was 0.486 enrichment R. As to B13, the binding signal was found to be 0.843 enrichment R. Regarding B14, the binding signal was found to be 2.44 enrichment R. In the case of B15, the binding signal came out at 0.55 enrichment R.

Turning to B16, the binding signal worked out at 11.4 enrichment R. The value for B17 was 1.94 enrichment R. The value for B18 was 0.857 enrichment R; that for B19 was 0.672 enrichment R. As for B20, the binding signal came out at 0.781 enrichment R. The result for B21 reads 1.32 enrichment R; that for B22, 0.453 enrichment R.
